Experimental data as given in PubChem BioAssay AID360 (National Center for Advancing Translational Sciences (NCATS), 2006).
About 550 (1.1%) of roughly 48,000 compounds were called active. Roughly 4% stayed inconclusive and do not appear here. No stated cut-off is given here; in the data, active means potency below about 15 µM; inconclusive means mostly about 16 µM to 33 µM; inactive means weaker than that. The list shows a part of the results.

biological target: Lysosomal acid glucosylceramidase (Homo sapiens) (UniProt P04062); experiment: Glucocerebrosidase; conditions: purified enzyme, resorufin glucoside fluorescence (screen aimed at inhibitors), 20 min;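 further: the screen sought inhibitors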
In short: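 Normal human glucocerebrosidase (0.2 nM final) was assayed with resorufin β-D-glucopyranoside (30 uM final) in 50mM citric acid/KH2PO4, 10mM sodium taurocholate, 0.01% tween-20, pH 5.9. Compounds were titrated; fluorescence (Ex 548, Em 600) read after 20 min at RT.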
Potency means the concentration at half of the fitted maximal effect.

Chain of UniProt P04062 (P04062 whole entry, looked up): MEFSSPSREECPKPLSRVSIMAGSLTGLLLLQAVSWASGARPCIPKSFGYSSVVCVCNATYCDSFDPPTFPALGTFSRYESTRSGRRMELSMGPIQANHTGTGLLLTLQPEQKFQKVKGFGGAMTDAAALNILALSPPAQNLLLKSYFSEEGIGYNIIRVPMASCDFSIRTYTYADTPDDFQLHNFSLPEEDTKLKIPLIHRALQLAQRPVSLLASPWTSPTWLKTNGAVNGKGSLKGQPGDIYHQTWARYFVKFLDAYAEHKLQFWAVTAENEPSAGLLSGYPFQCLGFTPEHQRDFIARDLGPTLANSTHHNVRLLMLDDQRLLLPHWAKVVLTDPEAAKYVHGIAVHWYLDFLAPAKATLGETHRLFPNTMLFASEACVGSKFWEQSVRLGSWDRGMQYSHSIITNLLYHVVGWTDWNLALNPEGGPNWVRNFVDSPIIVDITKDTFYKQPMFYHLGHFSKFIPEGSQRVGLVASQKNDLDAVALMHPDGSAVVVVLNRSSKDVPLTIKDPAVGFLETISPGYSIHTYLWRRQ

Potency, inactive:
Cc1ccc(S(=O)(=O)NC2=NCN(Cc3ccccc3)CN2)cc1 > 76.9 µM, Cc1ccc(C)n1C(Cc1ccccc1)C(=O)O (stereo not given) > 76.9 µM, COC(=O)CSc1nc2ccc(NC(C)=O)cc2s1 > 76.9 µM, c1cc(C(c2nnnn2C2CCCCC2)N2CCN3CCCC3C2)ccn1 (stereo not given) > 76.9 µM, Cc1cc(NC(=O)C(C)C)ncc1NC(=O)CCc1ccccc1 > 76.9 µM, COc1ccccc1N1CCN(C(c2cccs2)C(C)NC(=O)c2cccs2)CC1 (stereo not given) > 76.9 µM, CCOC(=O)C1CCCN(C(=O)c2cc3c(-c4cccc(OC)c4)nn(C)c3s2)C1 (stereo not given) > 76.9 µM, O=C(C1CCCN1C(=O)c1cccs1)N1CCN(Cc2ccc3c(c2)OCO3)CC1 (stereo not given) > 76.9 µM, Cc1noc(C)c1COc1cccc(C(=O)OCC(=O)N2CC(=O)Nc3ccccc32)c1 > 76.9 µM, CCCn1c(N)c(Sc2ccc(Cl)cc2)c(=O)n(CCC)c1=O, CCOC(=O)N1CCN(C(=O)c2c(O)c3cccc4c3n(c2=O)CC4)CC1 > 76.9 µM, CCN1CCN(c2ccc(NC(=O)Cc3ccccc3)cc2)CC1, CCOC(=O)CSC1=C(C#N)C(c2ccc(C)cc2)C2=C(CCCC2=O)N1 (stereo not given) > 76.9 µM, Cc1ccccc1Cn1cnc2c(nnn2Cc2ccc(F)cc2)c1=O > 76.9 µM, CCCC(=O)Nc1ccccc1NC(=O)C1CCCCC1 > 76.9 µM, CCOC(=O)c1oc2ccccc2c1CSc1nnnn1-c1ccccc1 > 76.9 µM, CCc1cc2c(N3CCCCC3)ncnc2s1 > 76.9 µM, COc1ccc(C)c(Cn2c(-c3nonc3N)nc3ccccc32)c1 > 76.9 µM, CCOC(=O)c1cccc(NC(=O)CSc2nnc(C3CCCCC3)n2CC)c1 > 76.9 µM, O=C(CSc1nnc2ccccn12)NCc1cccs1 > 76.9 µM, COc1ccc(C(=O)NCCn2ccc3ccccc32)c(OC)c1 > 76.9 µM, CN(C)CCNc1ncnc2ccccc12 > 76.9 µM, Cc1cc(C(=O)NCc2ccc(S(N)(=O)=O)cc2)cs1 > 76.9 µM, Cc1csc(Sc2nc3c(c(=O)[nH]c(=O)n3C)n2Cc2ccccc2Cl)n1 > 76.9 µM, O=C(COC(=O)c1ccc(Br)c(S(=O)(=O)N2CCOCC2)c1)NCC1CCCO1 (stereo not given) > 76.9 µM, COc1ccc(NC(=O)CSc2nnc(-c3ccccc3)n2N)cc1 > 76.9 µM, CCOC(=O)c1ccccc1NC(=O)Cn1cnc2c(cnn2-c2ccccc2)c1=O > 76.9 µM, CCOc1ccc(Nc2nc(CC(=O)OC)cc(=O)[nH]2)cc1 > 76.9 µM, CCOc1ccccc1C1CC(=O)NC2=C1C(=O)CCC2 (stereo not given) > 76.9 µM, CN(C)S(=O)(=O)N1CCC(C(=O)O)(c2ccccc2)CC1 > 76.9 µM, COc1ccc(C(=O)Nc2ccc(C)cn2)c(OC)c1 > 76.9 µM, COc1ccc(C(c2nnnn2CCc2ccccc2)N2CCN(C3CCCC3)CC2)cc1OC (stereo not given), Cc1c(NC(=O)CSC2=C(C#N)C(c3ccccc3F)CC(=O)N2)c(=O)n(-c2ccccc2)n1C (stereo not given) > 76.9 µM, O=C(OCC(=O)N1CCCC1)c1ccco1 > 76.9 µM, CCC(C)Nc1nc(OCC(F)(F)F)nc(OCC(F)(F)F)n1 (stereo not given) > 76.9 µM, Cc1cc(C(F)F)n2nc(C(=O)Nc3ccc(S(=O)(=O)N4CCCCCC4)cc3)nc2n1 > 76.9 µM, Cc1cc(N2CCC(C)CC2)nc2ccc(N3C(=O)CCC3=O)cc12 > 76.9 µM, Cc1ccc(S(=O)(=O)N2CCCC2C(=O)n2nc(C)cc2C)cc1 (stereo not given) > 76.9 µM, C=CCn1c(Cc2cccs2)nnc1SCC(=O)Nc1ccc(C(=O)OCC)cc1 > 76.9 µM, O=C(O)c1ccc(Cl)c(NC(=O)C2CCCN2S(=O)(=O)c2cccc3nsnc23)c1 (stereo not given) > 76.9 µM, CC(O)CN(Cc1cccc(Cl)c1)CC(C)O (stereo not given) > 76.9 µM, Cc1ccc(-c2nc(COC(=O)c3c(C)noc3C)cs2)cc1 > 76.9 µM, CCOc1ccc(C(=O)Cc2ccc3oc(C(=O)O)cc3c2)c(O)c1 > 76.9 µM, O=C(NCCCN1CCCCC1)c1ccc2c(=O)n(CCc3ccccc3)c(=O)[nH]c2c1 > 76.9 µM, Cc1ccc(-n2nnnc2SCC(=O)c2cc(C)n(-c3cc(C)on3)c2C)c(C)c1 > 76.9 µM, O=C(COC(=O)C12CC3CC(CC(O)(C3)C1)C2)NC(=O)NCc1ccco1 > 76.9 µM, O=C(CSc1nnc2n(C3CCCCC3)c(=O)c3ccccc3n12)OC1CCCCC1 > 76.9 µM, Cn1c(CCNC(=O)c2ccc(F)cc2)nc2ccccc21 > 76.9 µM, O=C(NCCc1ccccc1)C1CCCN1C(=O)Nc1ccc(F)cc1 (stereo not given) > 76.9 µM, O=C(CSc1nnc(-c2ccco2)o1)NC(=O)Cc1ccccc1 > 76.9 µM, COc1cc(C(=O)Nc2nccs2)ccc1OCc1c(C)noc1C > 76.9 µM, COc1ccc(-c2nnc(SCC(=O)c3ccc(C)o3)o2)cc1 > 76.9 µM, Cc1nc(NC2=NCN(C3CCCCC3C)CN2)nc2ccccc12 (stereo not given) > 76.9 µM, CCCc1cc(=O)n2[nH]c(-c3ccc(C)cc3)cc2n1 > 76.9 µM, CCN(C(=O)Cn1c(=O)oc2ccccc21)c1cccc(C(F)(F)F)c1 > 76.9 µM, N#Cc1nc(Cc2cccc3ccccc23)oc1NCc1ccc(F)cc1 > 76.9 µM, CC(C)(Oc1ccc(Cl)cc1)C(=O)Nc1ccc2oc(-c3ccncc3)nc2c1 > 76.9 µM, COc1cc2[nH]c(=O)n(CCCCCC(=O)NCCCN3CCOCC3)c(=O)c2cc1OC, Cc1ccc(NC(=O)COc2ccc3oc4c(c3c2)CCCC4)nc1 > 76.9 µM, Cc1ccc(-c2csc(=S)n2CC(=O)OCC(=O)NCc2ccco2)cc1 > 76.9 µM, O=C(c1ccco1)N1CCN(C(=O)c2cnn3c(C(F)(F)F)cc(-c4cccs4)nc23)CC1 > 76.9 µM, CCn1cc(/C=C(/C#N)S(=O)(=O)c2ccccc2)cn1 > 76.9 µM, CCOC(=O)Nc1nnc(-c2cccc(OC)c2)s1 > 76.9 µM, O=C(Nc1nnc(CCc2ccccc2)s1)c1cccs1 > 76.9 µM, O=C1CC(N2CCOCC2)C(=O)N1CCc1ccccc1 (stereo not given) > 76.9 µM, O=C(COC(=O)c1ccc2c(c1)OCCO2)NCc1ccccc1 > 76.9 µM, O=C(O)CC(NS(=O)(=O)c1cccc2nsnc12)c1ccc(F)cc1 (stereo not given) > 76.9 µM, COc1cc2c(C(=O)NC3CCCCCC3)cn(C)c(=O)c2cc1OC > 76.9 µM, Cc1ccc(-c2nc3cnccn3c2Nc2ccc3c(c2)OCCO3)o1 > 76.9 µM, O=C(CSc1nnc2ccccn12)Nc1ccccc1C(=O)NC1CC1 > 76.9 µM, O=C(c1cccc(C(=O)N2CCN(c3ccccc3F)CC2)n1)N1CCN(c2ccccc2F)CC1 > 76.9 µM, COC(=O)CSc1nnc2c3c4c(sc3nc(-n3nc(C)cc3C)n12)COC(C)(C)C4 > 76.9 µM, CCOC(=O)CSc1nnc(-c2ccc(Cl)cc2Cl)o1 > 76.9 µM, CC(C)(C)S(=O)(=O)c1ccccc1C(=O)O > 76.9 µM, CCc1nnc(NC(=O)c2ccc(S(=O)(=O)N3CCCCC3C)cc2)s1 (stereo not given) > 76.9 µM, O=C(NCC1CCCO1)c1ccccn1 (stereo not given) > 76.9 µM, COC(=O)C1=C(C)N(C)C(C)=C(C(=O)OC)C1c1ccncc1 > 76.9 µM, O=C(NCc1ccccc1F)C1CCCN(C(=O)NC2CCCCC2)C1 (stereo not given) > 76.9 µM, COc1ccc(NC(=O)COn2nnc3ccc(Cl)cc32)cc1OC > 76.9 µM, Cc1cc(NC(=O)c2cnn3c(C(F)F)cc(-c4ccccc4)nc23)no1 > 76.9 µM, CC(C)Cn1c(N2CCN(C(=O)c3cccs3)CC2)nc2ccccc21 > 76.9 µM, Cc1ccc(-n2nc3c(c2NC(=O)c2c(-c4ccccc4Cl)noc2C)CSC3)cc1 > 76.9 µM, CCOC(=O)c1[nH]c(C)c(CN(CCc2ccc(OC)c(OC)c2)C(=O)CCCC(=O)O)c1C > 76.9 µM, COCCn1nnnc1C(c1cc2cccc(C)c2[nH]c1=O)N1CCN(c2ccccc2F)CC1 (stereo not given) > 76.9 µM, Cc1[nH]c2ccc(-c3nnc(SCC(=O)c4ccc(F)cc4)o3)cc2c1C > 76.9 µM, O=C(O)Cn1nc(-c2ccccc2)c2ccccc2c1=O > 76.9 µM, Nc1nonc1C(=O)NCCNCc1ccccc1OCc1ccccc1F > 76.9 µM, CCn1c2c(c3cc(C(=O)O)ccc31)CCCC2=O > 76.9 µM, O=C(NCCC(=O)N1CCN(c2ncccn2)CC1)c1ccccc1 > 76.9 µM, C=CCOc1nc(N2CCCC2)nc(N2CCCC2)n1 > 76.9 µM
